Among all 110,000 compounds or so, about 230 (0.21%) showed an effect of 50% or more. The list shows a part of the results.
target: DPAP1 (Plasmodium falciparum, UniProt Q8IIJ9); test: primary screen, percent inhibition; read by cleavage of a fluorogenic dipeptide substrate; higher = more effect of the substance; set-up: species or system P. falciparum D10 trophozoite lysates; single well
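Further: 30 min substrate incubation versus DMSO and 10 µM JCP410 controls.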

DPAP1, sequence (Q8IIJ9 whole entry, looked up): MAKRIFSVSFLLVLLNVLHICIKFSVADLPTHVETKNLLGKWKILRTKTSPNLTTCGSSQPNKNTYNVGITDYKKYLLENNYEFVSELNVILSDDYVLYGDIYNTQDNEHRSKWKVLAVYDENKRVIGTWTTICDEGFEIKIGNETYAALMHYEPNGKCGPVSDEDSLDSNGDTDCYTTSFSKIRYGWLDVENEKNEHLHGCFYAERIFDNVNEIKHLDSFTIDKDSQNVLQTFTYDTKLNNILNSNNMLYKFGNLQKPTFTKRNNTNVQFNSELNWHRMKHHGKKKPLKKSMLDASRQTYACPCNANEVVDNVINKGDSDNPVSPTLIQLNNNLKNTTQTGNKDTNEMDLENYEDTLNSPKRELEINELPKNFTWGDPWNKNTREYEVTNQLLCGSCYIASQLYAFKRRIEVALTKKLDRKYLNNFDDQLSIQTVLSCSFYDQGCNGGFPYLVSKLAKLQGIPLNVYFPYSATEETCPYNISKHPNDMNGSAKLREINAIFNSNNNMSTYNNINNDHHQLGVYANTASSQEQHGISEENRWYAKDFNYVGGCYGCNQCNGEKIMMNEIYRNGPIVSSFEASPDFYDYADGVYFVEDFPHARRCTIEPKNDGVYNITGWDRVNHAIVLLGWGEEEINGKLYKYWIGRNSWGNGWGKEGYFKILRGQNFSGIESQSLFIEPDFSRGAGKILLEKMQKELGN

Row | SMILES | % Inhibition @ 10 uM [%]
1 | Cc1nc2nc(-c3ccc(Cl)cc3Cl)nn2c(C)c1CCC(=O)NCCCN1CCCC1=O | -0.465
2 | COc1ccccc1OCC(=O)Nc1cccc(C#N)c1 | -4.66
3 | CC1CCN(S(=O)(=O)c2ccc(NC(=O)COc3ccc(Cl)cc3Cl)cc2)CC1 | 0.583
4 | CNC(=S)N1CCn2cccc2C1c1ccncc1 (centres unmarked) | -1.12
5 | CCC1(CC)Cc2ccccc2C(=O)N1 | 2.65
6 | CCn1c2ccccc2c2cc(CNc3cc(-c4ccccc4)ccc3OC)ccc21 | -2.34
7 | Cc1ccc2nc(-c3ccc(C)s3)cc(C(=O)O)c2c1 | 2.42
8 | CCOc1ccc(C2CC(=O)N=C(NC(=O)c3ccccc3)N2)cc1 (centres unmarked) | 0.6
9 | CC(NC(=O)COc1ccc(Br)cc1)C12CC3CC(CC(C3)C1)C2 (centres unmarked) | 0.161
10 | CNc1nc2nonc2nc1NC | 5.39
11 | Cc1[nH]c(-c2ccc3c(c2)OCO3)nc1C(=O)O | -4.74
12 | Cc1nccc2nc(O)c(C(=O)NCCN(CC(C)C)CC(C)C)cc12 | 0.718
13 | CC1CCc2c(sc(NC(=O)c3cccc(F)c3)c2C#N)C1 (centres unmarked) | -0.725
14 | CC1=C(C(=O)Nc2ccc(Cl)cc2)C(c2cccc(Cl)c2)NC(=O)N1 (centres unmarked) | -4.6
15 | CCOC(=O)c1ccc(CN(CCN2CCOCC2)S(=O)(=O)c2ccc(Cl)cc2)cc1 | 1.42
16 | c1ccc(-c2nc(NCCN3CCOCC3)c3ccccc3n2)cc1 | -1.26
17 | CC(=O)C(C)n1c(CN(C)Cc2ccccc2)nc2c1c(=O)n(C)c(=O)n2C (centres unmarked) | -2.91
18 | O=C(CCCC(=O)NCCC1=CCCCC1)NCCC1=CCCCC1 | -5.28
19 | CCC(=O)Nc1ccc2nc(SCC(=O)N3CCN(C)CC3)sc2c1 | -0.994
20 | COc1ccc(CC(=O)N2CCOCC2)cc1OC | -0.82
21 | Cn1c(=O)n(Cc2ccccc2Cl)c(=O)c2c1nc1n2CCN1Cc1ccccc1 | 1.97
22 | CCC(C)NS(=O)(=O)c1c[nH]c(C(=O)OC)c1 (centres unmarked) | -4.07
23 | CCCNC(=O)C12CC3CCC(CC(C3)C1)C2 | 7.96
24 | CCOc1cc(/C=C2/SC(=O)N(CC)C2=O)c(Cl)cc1OC | -0.62
25 | COc1ccc(C2C(C(=O)c3ccc(F)cc3)=C(O)C(=O)N2CC2CCCO2)cc1 (centres unmarked) | -1.22
26 | O=C(NCCCc1ccccc1)C1CCN(c2nnc(-n3cccc3)s2)CC1 | 1.15

Row | SMILES | % Inhibition @ 10 uM [%]
27 | O=C(Nc1ccc2ccccc2c1)/C(=C/c1ccc2c(c1)OCO2)NC(=O)c1ccco1 | -0.736
28 | Cc1cccc(Oc2nc3c(C)cccn3c(=O)c2/C=C(\C#N)S(=O)(=O)c2ccccc2)c1C | 3.63
29 | N#Cc1cccc2c1[nH]c1ccc(Cl)cc12 | -2.2
30 | Oc1cccc(CN2CCc3ccccc3C2)c1 | 6.33
31 | COc1ccc(C(=O)NCC(c2ccco2)N2CCCC2)cc1 (centres unmarked) | 5.2
32 | CC1(C(=O)O)Cc2ccccc2C(=O)O1 (centres unmarked) | -3.53
33 | Cc1ccc(-c2csc(-c3cc4cc(Br)cc(Br)c4oc3=O)n2)c(C)c1 | -6.07
34 | C=C(C)Cn1c(C(C)NC(=O)c2ccc(Cl)cc2)nc2ccccc21 (centres unmarked) | 2.17
35 | O=C(CN(c1cc(Cl)cc(Cl)c1)S(=O)(=O)c1ccccc1)N1CCCCC1 | -5.82
36 | O=C(c1cc(-c2ccccc2)[nH]n1)N1CCN(C(=O)c2ccc(Br)o2)CC1 | 0.745
37 | O=C(Nc1ccc(C(=O)N2CCCC2)cc1)C1CC1c1ccc(Cl)cc1 (centres unmarked) | 1.59
38 | Cc1cc(C)n2nc(SCc3c(F)cccc3Cl)nc2n1 | -5.8
39 | OC1CCN(CCc2ccccc2)CC1 | 1.62
40 | CCOC(=O)C1=C(C)N=c2s/c(=C\c3ccc(N(C)C)cc3)c(=O)n2C1c1ccc(OC)cc1 (centres unmarked) | 2.22
41 | CC1CCCCN1C(=O)CSc1nnc(-c2ccc(F)cc2)o1 (centres unmarked) | 6.13
42 | c1ccc(-c2nnc(COc3cccc4ccccc34)o2)cc1 | -1.22
43 | Cn1c(=O)c2c(-c3ccccc3)n(CCc3c[nH]c4ccccc34)cc2n(C)c1=O | 2.41
44 | CC(=O)Nc1ccc(C(=O)Nc2cccc(C)c2C)cc1 | -1.79
45 | CC(C)(CO)NC(=O)c1ccc2c(c1)C(=O)c1ccccc1-2 | -3.53
46 | O=C(NCCCSC1CCCCC1)c1csc2c1CCCC2 | 12.2
47 | NCCNC(=O)c1c(NC(=O)c2ccccc2)sc2c1CCCC2 | -9.28
48 | CCOc1ccc2c(=O)c(-c3ccc4c(c3)OCCCO4)c(C)oc2c1 | -0.622
49 | Nc1nonc1C(=O)NCc1ccco1 | 20.5
50 | Cc1nc2sc(C(=O)c3ccccc3)c(N)c2c(C)c1C(=O)Nc1ccccc1 | -0.759
51 | O=C(O)c1ccccc1NC(=O)C12CC3CC(CC(C3)C1)C2 | -5.44
52 | COc1ccc(CNC(=O)c2cnn3c2NC(c2ccc(OC)cc2)CC3C(F)(F)F)cc1 (centres unmarked) | -9.05

Row | SMILES | % Inhibition @ 10 uM [%]
53 | CCO/C=N/c1oc(C)c(C)c1C#N | 1.5
54 | O=C(Nc1scc(-c2ccccc2)c1C(=O)O)c1ccc(Cl)cc1 | 2.54
55 | Cc1nc2c(c(C)c1CCC(=O)N1CCN(C(=O)c3ccco3)CC1)c(=O)n(C)c(=O)n2C | -1.3
56 | COc1ccc(C)cc1N(CC(=O)NCc1ccccc1)S(=O)(=O)c1ccccc1 | -1.61
57 | CCn1cc2nc(SC)n(CCc3ccccc3)c(=O)c2n1 | -0.873
58 | COc1ccc(CN2CCC(C)CC2)c(C)c1C | -1.64
59 | O=C1CCCC2=C1C(c1cccc([N+](=O)[O-])c1)Nc1ccc3ncccc3c12 (centres unmarked) | 0.937
60 | CCOc1ccc(OCC)c(S(=O)(=O)N2CCN(c3cc(C)ccc3C)CC2)c1 | -6.43
61 | Cc1ccnc(NC(=O)C(C(F)(F)F)C(F)(F)F)c1 | -3.03
62 | CS(=O)(=O)N(CCc1ccccc1)CC(=O)NCc1ccccn1 | -11.2
63 | c1cc2c(cc1C1CCCC1)c1c3n2CCNC3CCC1 (centres unmarked) | -1.61
64 | OCC1CCCN(CCc2ccccc2)C1 (centres unmarked) | -5.26
65 | COC(=O)C1(O)CC(C)N(C)CC1C (centres unmarked) | -1.86
66 | CC(O)CN(Cc1c(F)cccc1Cl)CC(C)O (centres unmarked) | -1.5
67 | COc1ccc(NC(=O)C2CC(=O)N(C)/C(=N/c3cccc(Cl)c3)S2)cc1 (centres unmarked) | 0.873
68 | O=C(Nc1cccc2c(S(=O)(=O)O)cccc12)c1ccccc1 | -8.12
69 | Cn1c(SCc2nc(-c3cccs3)no2)nnc1-c1ccc(Cl)cc1 | -2.21
70 | CCOc1cc2c(cc1OCC)C(C(=O)O)C(c1ccc(F)cc1Cl)N(C)C2=O (centres unmarked) | 5.12
71 | C=CCOc1c(Br)cc(/C=C2/NC(=O)N(CC=C)C2=O)cc1OC | -7.25
72 | C=CCOc1cccc(C2c3c(oc4ccc(F)cc4c3=O)C(=O)N2CCOC)c1 (centres unmarked) | -1.33
73 | O=[N+]([O-])/C=C\c1ccc(-c2ccc(Br)cc2)o1 | 2.13
74 | CCOc1ccc(C(=O)Nc2c3c(nn2-c2ccc(Cl)cc2)CS(=O)(=O)C3)cc1 | -3.83
75 | CCC(C)NC(=O)C1CCC(CNS(=O)(=O)c2cccc3cccnc23)CC1 (centres unmarked) | -2.42
76 | C#CCN1C(=O)S/C(=C/c2ccc(N3CCCCC3)o2)C1=O | -3.75
77 | CCOC(=O)C1CCCCN1Cc1ccsc1 (centres unmarked) | -5.68
78 | CCOc1ccccc1NC(=O)C1=C(C)NC(=O)NC1c1cc(OC)ccc1OC (centres unmarked) | -2.07

Row | SMILES | % Inhibition @ 10 uM [%]
79 | COc1ccc(C2C(C(=O)Nc3ccccc3)=C(C)N=c3s/c(=C/c4cnn(C)c4)c(=O)n32)cc1 (centres unmarked) | 3.69
80 | COc1ccc(CCNS(=O)(=O)c2cnc(Cl)c(Br)c2)cc1OC | -5.06
81 | CN(C)CCN(C)C1CCN(CCc2ccccc2)CC1 | -0.0953
82 | Cc1cccc(Cl)c1OCCOCCN1CCCCC1 | 3.29
83 | Cc1ccc(CNC(=O)c2cc3c(O)nc4ccccc4c3s2)cc1 | -0.499
84 | c1ccc(-c2nn(-c3ccccc3)c3ncc4[nH]c5ccccc5c4c23)cc1 | -0.0372
85 | Nc1nc(COc2ccc(F)cc2Cl)nc(N2CCOCC2)n1 | -6.84
86 | Clc1cccc2c(N3CCN(Cc4ccccc4)CC3)cnnc12 | 2.09
87 | COC(=O)c1cccc(NC(=O)CCC2CCCCC2)c1 | 3.29
88 | Cc1ccc(CCN2CC(C(=O)NCc3cccnc3)CC2=O)cc1 (centres unmarked) | 1.62
89 | COc1ccc(S(=O)(=O)NCCN2CCOCC2)cc1-c1nnc2c3ccccc3c(C)nn12 | 0.628
90 | O=C(NCc1cccs1)C(NS(=O)(=O)c1cccc2nsnc12)c1ccccc1 (centres unmarked) | 3.63
91 | OCCN(CCO)Cc1ccc(Cl)cc1 | -1.56
92 | COc1ccccc1NC(=O)c1ccccc1NC(=O)c1cc(Cl)ccc1NC(=O)c1ccco1 | -3.1
93 | c1ccc2c(c1)CC(NCCc1c[nH]cn1)C2 | -3.6
94 | CCOc1ccc(NC(=O)C2CC(=O)N(C)/C(=N/c3ccc(F)cc3)S2)cc1 (centres unmarked) | 0.873
95 | O=C(Cn1c2c(c(-c3ccccc3Cl)cc1=O)CCC2)N1CCC2(CC1)OCCO2 | -0.971
96 | O=C(Cc1ccccc1)N1CCCCCC1 | 0.605
97 | CC1CCCC(C)N1C(=O)Cn1cc(C(=O)c2ccccc2)c2ccccc21 (centres unmarked) | 3.25
98 | COC(=O)c1cccnc1-n1c(=O)c2cccnc2n(Cc2ccccc2Cl)c1=O | 5.33
99 | O=C(Nc1ccc(S(=O)(=O)N2CCCC2)cc1)C12CC3CC(C1)CC(n1cncn1)(C3)C2 | 1.34
100 | C=CCN1C(=O)/C(=C/c2ccc(OC)cc2OC)C(=O)NC1=S | 5.29
101 | Cc1nn(CCC(=O)NCCc2ccc(Cl)cc2)c(=O)c2nn(-c3ccccc3)c(C)c12 | -5.94

From publication PMC6919601, “Identification of Plasmodium dipeptidyl aminopeptidase allosteric inhibitors by high throughput screening” (PLoS ONE, 2019)
